Source: the supplement of paper PMC3334620
Whole data set: some 33,000 sequences, median “E-score (-0.5 to 0.5)” near -0.011, cut for the highest 2% near 0.28. This is one part of the list.

Molecular target: T1, Gcr1 (UniProt P07261)
T1 sequence: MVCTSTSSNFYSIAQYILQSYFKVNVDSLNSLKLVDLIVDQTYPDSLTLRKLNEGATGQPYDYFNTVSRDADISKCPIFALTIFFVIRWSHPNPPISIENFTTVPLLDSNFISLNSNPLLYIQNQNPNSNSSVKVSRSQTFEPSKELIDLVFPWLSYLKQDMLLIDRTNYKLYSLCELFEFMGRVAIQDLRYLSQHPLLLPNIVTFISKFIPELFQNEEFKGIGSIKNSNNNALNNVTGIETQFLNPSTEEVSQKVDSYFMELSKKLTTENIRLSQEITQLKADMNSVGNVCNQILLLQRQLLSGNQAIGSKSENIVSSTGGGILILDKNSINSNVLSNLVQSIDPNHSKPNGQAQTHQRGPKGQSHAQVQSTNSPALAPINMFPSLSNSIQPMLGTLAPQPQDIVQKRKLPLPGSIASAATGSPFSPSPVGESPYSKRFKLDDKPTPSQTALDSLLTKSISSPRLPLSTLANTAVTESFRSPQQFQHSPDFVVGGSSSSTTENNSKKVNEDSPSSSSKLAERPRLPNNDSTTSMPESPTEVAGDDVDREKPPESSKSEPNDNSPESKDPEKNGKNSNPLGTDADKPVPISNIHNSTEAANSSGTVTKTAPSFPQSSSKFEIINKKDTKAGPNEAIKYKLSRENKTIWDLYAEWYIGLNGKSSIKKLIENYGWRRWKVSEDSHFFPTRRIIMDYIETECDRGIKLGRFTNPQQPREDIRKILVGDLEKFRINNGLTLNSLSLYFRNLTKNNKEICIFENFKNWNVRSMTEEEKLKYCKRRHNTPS
Test: PBM E-score (8-mer binding enrichment) (E-score (-0.5 to 0.5)); higher = stronger / more preferred TF binding; most listed sequences are background and not binding sites
Settings: protein concentration: 100 nM; construct: GST-full length
In short: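 Universal all-10-mer Agilent arrays, fresh or stripped once, were converted to double-stranded form by primer extension. GST-tagged yeast transcription factors from PURExpress in vitro transcription/translation, full-length or DNA-binding domain only, were applied at about 100-200 nM and detected with fluorescent anti-GST. After masliner normalisation, the Universal PBM Analysis Suite scored each ungapped eight-base word together with its reverse complement by E-score.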

Sequence	PBM E-score
ATATGGAC	-0.0174
CCCATTCC	0.209
GCAGGCCC	-0.133
CTTCAACC	0.0357
ACGATGCT	0.271
CCTAACCC	-0.176
GTCAGGAC	0.00402
AACTAGAA	0.197
GCCTTAGC	-0.156
GTGGTCTA	-0.129
ATTTTCGA	-0.0355
GATGTCCC	-0.0855
GCGTTGAA	-0.163
CCGCGCCA	-0.0281
CAGTTGAC	-0.1
AATAGAAC	-0.107
CTAGTAGA	0.151
CTTGGGAA	0.0288
CACGGCCC	-0.132
ACACCGTC	-0.0804
AGCGCCCG	0.272
ATTGAGCG	0.00193
CGGACTGC	0.0266
AATGCATG	-0.124
ATTCGTTA	0.0715

Sequence	PBM E-score
AATCTTGA	0.1
ATTTTCCG	0.0628
CGTAAATA	0.123
ACTTTCTC	0.0431
GTCGATCA	-0.191
GGTTTCAA	0.0956
GCCCGGTA	0.0674
AATGCTTA	-0.0993
AAACGAGA	-0.144
GGGGTCAA	0.0369
AGTGCCTG	0.0177
AGCATGCC	-0.225
GGAAGTCA	0.234
CACGCTAA	-0.183
CGCCCGCA	0.117
AGATCGAG	-0.17
GCCCCCTA	0.079
CAGTTAAC	0.146
GCTGCCCC	0.136
AGGCATGG	-0.0719
ACCCATAA	0.178
CTTCCAAG	-0.132
GTTGCATA	-0.16
GAGCACAC	-0.271
ATCTCGCG	0.13

Sequence	PBM E-score
CAACTGGG	0.0742
TGGCAGAA	0.206
CCCTGTTC	-0.0496
GATCCCCA	0.28
CGAATCTA	0.122
GATACTTA	0.0683
CCAATCGA	0.0476
GACACCGA	0.017
AGCAGCTA	0.273
AACATAAG	0.0293
AACCCACC	0.135
CACTCAGG	-0.0815
ACTGTTTA	-0.0723
AAGCCATG	-0.167
ATGTTAAC	0.0249
AGTCTCAG	-0.0732
ATCTACTA	0.136
CTTTAGTA	0.107
AGCTGTGA	-0.189
GTTGTCCA	-0.239
GTTCGTAA	0.115
AAATCCAG	0.0406
AAGTACTC	-0.00017
CAATAGTA	0.0639
AGAATGAT	-0.0182

Sequence	PBM E-score
ATTTGGAA	0.373
TAATTCCA	0.037
CTAGGATC	0.121
GAGTCCTA	0.0444
ATAGGGTA	-0.191
CTTGCGAC	-0.193
AACTCCAC	-0.0372
AAGGTCAA	0.0136
GCAGAGCA	-0.0499
AGAGACAG	0.00332
AGATTAGC	0.00374
GTGCAGAA	0.1
ACGCTTAT	-0.126
GACCAGGC	-0.00191
GCGCCGGA	0.101
CGGCGATC	-0.0767
CCGGCAGA	0.0729
TGAAGGCA	-0.0834
CATGCATA	-0.145
TCGGTGCA	-0.143
CTCACATA	-0.136
TAGTGGAA	0.42
CGGCCCCA	-0.11
ATCGAGCC	-0.13
GCTTAACA	-0.00163

Sequence	PBM E-score
CAGCAGGA	-0.057
AACCGGGA	0.127
GAACACAC	-0.171
CACAACAG	0.044
CTTGGTCC	-0.0555
AGAATACG	0.182
AAGGGAAG	0.04
TCAGTGCA	-0.0673
AAAGGTTC	0.0119
CAATGGTC	0.012
CAAATCCG	-0.00246
CGATCTAA	-0.0652
GGGGGACC	0.12
AACCCAGT	0.0996
ACAACTCC	-0.0782
GCGACTAC	0.0667
ACTGGCTG	0.13
CCATGCAA	0.157
AAAGCATT	-0.0337
CACTGCCA	0.0738
AAGGTGTA	-0.123
AATTAACA	0.182
TGGCGACA	0.128
TAAAACTA	-0.0014
ATCCGGGG	0.104

Sequence	PBM E-score
CAACCTAG	0.121
AGCCTGGG	-0.0302
AATGCTCC	-0.166
CAGTCCCA	0.0489
GTCGAAAA	-0.0199
ATAATGGC	-0.00297
AGAAGTTC	0.146
CTATACGC	0.0693
CTGCTTCC	0.177
ACGAAGTG	-0.091
ACAATTAT	0.176
ATTTGTGG	0.216
ACCAGACT	-0.0318
CCTAAAAA	0.165
TGGCAAAA	0.0138
CCAGTTAC	0.0958
ATCCCAGG	0.0709
CTCGTTCA	0.0147
GCGTTCAA	0.0424
CTTAAATC	0.0748
TCAAGTAA	-0.0856
ATAAGCCG	0.039
GCATCCTA	0.4
CAGGAGAC	-0.00153
CTTTGCAC	-0.0561

Sequence	PBM E-score
ACATAGCG	0.0113
GCCGTTAA	0.118
AAGAGGTC	0.052
ATCAACTG	0.0446
ACAGCCTA	-0.0457
GCCCCAAC	0.0665
AGGTCATC	-0.355
AATGTTCC	-0.0252
CCCGTCGG	-0.151
GTTCACTA	-0.153
CAATTGCG	-0.0501
ATATAGTG	0.17
ACTCGCAC	-0.0744
ACCGCACG	-0.134
CCCCTATC	0.108
GAAGAGCC	-0.0968
AGTCCGTA	-0.0556
ATGGTATC	0.215
GTTATTGA	0.0372
CAATGGGA	-0.00746
ACGATTCC	0.12
ATGGTGTC	0.135
AGTATCTA	-0.103
AGTGTGCG	-0.157
CCTTAGGC	-0.301

Sequence	PBM E-score
GGATCTGA	0.0524
ATTCGTCA	0.0357
ACCCTGAC	-0.137
GACGCATC	0.198
GTCACTTA	-0.04
TTAATTAA	0.0576
ATGGGCCG	-0.0697
CAATCGCA	-0.253
ACGACTCA	-0.0601
CGCCCACG	-0.0227
CCGCTGTA	0.0833
GGGAAGTA	-0.111
GGTCCTAA	0.162
TCCCCGAA	0.0268
CATAGGCA	0.0323
CGCCTAGA	0.0708
TCCCTTAA	0.0293
GTTGCAGA	0.0564
TTCTACAA	0.0935
GATTATTA	0.136
AATTTAGA	0.108
TAATACAA	-0.0478
CCGGGTCC	0.144
AAGATTAT	-0.169
TCCGCCCA	-0.179

Sequence	PBM E-score
GGTGGCTA	0.0293
AAATCCCA	0.107
CCAACCGC	-0.0449
GAATGGAC	-0.187
CCGTATTA	0.00072
AAATATGC	-0.177
TAGGTATA	0.136
ACTCGGAC	-0.0825
ATGACGAA	-0.033
CTACCAGC	-0.0567
ACTACAGG	0.077
CAGAGGGC	-0.303
AGTATGAA	-0.0877
AGTTTGAG	0.177
AGCCAGTC	-0.0837
CCGTGGGC	-0.0724
AGAAGCGG	0.267
ACTAAGCT	-0.0155
CACCACCG	-0.0609
AGACTGCC	-0.197
CTTATAGC	-0.0453
CATCCAAC	-0.0403
AGGTACCC	0.0648
GACGTTGC	0.163
ATATGCGC	0.0648

Sequence	PBM E-score
ATATCATA	-0.0734
ATGAGGCA	-0.0656
GGCCGTGA	-0.26
ATAGGGGA	0.114
GCAGTCGC	-0.0933
CAAACTTG	0.00459
CAATGCTC	-0.174
ATTGTAAG	-0.0855
AATGCCGC	-0.178
CGGCACCG	0.143
GAACAACC	-0.0951
CACGACTC	0.107
TAGCTAGA	-0.132
AAGTACGG	0.0124
AACCCGGG	0.0515
GAGGGTGA	-0.0792
AAGTCCCC	-0.0218
CATAGTAG	0.138
CTATGAGC	-0.157
TCAACAAA	0.103
GTGCCTGA	0.0614
AACACATA	0.12
GAAAAGGC	-0.195
ATATGCCA	-0.148
AACCCGGT	-0.041

Sequence	PBM E-score
TACACCGA	0.0437
CTTGCTTA	-0.176
CAAGAGCA	-0.105
ATCCACCA	0.146
CCACGCAA	0.025
GAAGAGCA	-0.0362
ACGCGCAC	-0.0501
AATCCTGC	-0.188
AAAGAGAT	-0.117
TACAGATA	-0.0799
CCACCGAC	-0.189
TAGCTGCA	-0.0344
ATATGGGC	0.111
AAACGATG	0.0379
ACACGGTA	-0.0843
ACAACGGT	-0.182
ACTCGAGT	0.0795
CACCCAGC	-0.16
AACCCGTT	0.0945
GCTCAGAC	0.161
TAGTTGGA	0.138
AGACGGTA	0.039
TCGGCTAA	0.0565
AGAATGAA	0.0686
CGCCTCCC	0.0753

Sequence	PBM E-score
GAAGCTCA	0.224
AATTGGGG	0.235
AAAACGGG	0.134
AGGCAGCC	0.382
CAGTGGAA	0.244
GTTACGCA	-0.0236
CCGCATCA	0.103
CAGTACCA	0.0486
AGATCCTG	0.197
CCAGAGCA	0.141
ACGATTAC	-0.146
GATTAGGC	-0.0727
CATGGCCA	-0.176
CGGATACA	0.123
AATTGACG	0.0162
CCTTAACC	-0.119
AGCGGGAA	0.142
CCCCTCTC	-0.317
ATGATCGC	-0.116
CTTCCTCA	0.264
AATTGATA	-0.0138
ATGACACA	0.0727
ATGTCATG	0.046
GCAAGCAC	-0.135
TATACACA	-0.0787

Sequence	PBM E-score
AAGAACTC	-0.0866
GCCTGAGA	-0.0639
CAGTTAGA	-0.145
ATTCGTAA	0.131
GATACCGC	0.146
ATCATGTA	0.146
CGAGACCA	-0.1
CGTCACAA	-0.04
ACAAAATG	0.00734
GGTAGCGA	0.00523
CTCGTTCC	-0.124
CTACAAGC	0.0109
CTAAGGTC	-0.174
GGACGAGA	-0.149
CATGGGCG	-0.105
ATTCTATA	0.073
TCCTATCA	0.0175
ATACGCTG	0.199
CGAGGGAC	-0.0995
CTACCTAG	0.0487
AAGGTAAT	-0.00255
AACTGGCG	0.0962
CGATCGTA	0.11
AAGAATGG	0.0959
CTGCCCTA	-0.0351

Sequence	PBM E-score
TAGGAGCA	0.0796
AATATTTC	0.146
AGTTTGCG	0.145
CTAAGCCC	-0.155
GATGTCGA	0.0577
GCGGTTCC	0.314
AAACGCGT	-0.103
AACTCCAT	-0.178
AAACCAGT	0.0252
CGGCCGCA	-0.114
CAATCTCA	0.101
CGAACTCA	0.108
ATACTCCA	-0.209
ACCCTGTG	-0.161
CCCGGTTA	-0.00373
GCAGCCAC	0.383
TCGAGAGA	-0.102
GCACGACA	-0.225
GTGATTAA	0.0979
